Results: PubChem BioAssay AID1508642 (National Center for Advancing Translational Sciences (NCATS), 2021)
Hit rate of the full screen: of about 43,000 compounds, about 200 (0.47%) were called active. About 12% were inconclusive and are not listed. Calls come from the whole dose curve; as a rule, active = well fitted cell-killing curve with a large enough effect; inconclusive = small, poorly fitted or top-dose-only effect, or effect the other way; inactive = flat fitted curve, though single readings scatter. This is one part of the list.

assay: Cell viability qHTS assay in S16 Pmp22-F2sN cells; conditions: S16 Pmp22-F2sN Schwann cells (luciferase reporters placed in the Pmp22 gene) viability, CellTiter-Glo, 24 h; series mostly up to 57.5 µM; activity change, negative = cytotoxicity: at the top concentration; note: nearly all actives have a fitted effect of over 65% in size
Summary of the method: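 Luminescence from CellTiter-Glo, read by CCD camera after a 15 min room-temperature incubation, served as the viability signal. Reporter Schwann cells (S16 Pmp22-F2sN) had been treated with pin-transferred compounds for 24 h at 37C.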
% is set by controls: 0 for no effect and ±100 for the full control effect.

Row | Compound | activity change, negative = cytotoxicity
1 | COc1cccc(CN2CCc3nc(Nc4ccc5c(c4)OCCO5)ncc3C2)c1OC | inactive: -2.47%
2 | CC(=O)Nc1ccc(OCc2cc(=O)n3ccccc3n2)cc1 | inactive: -1.1%
3 | COc1ccccc1N1CCN(C(CNC(=O)C(=O)NCCN(C)C)c2cccnc2)CC1 (stereo not given) | inactive: 3.17%
4 | CCOC(=O)c1c(NC(=O)COc2cc(C)ccc2C(C)C)sc2c1CCCC2 | inactive: -2.76%
5 | CCCCNC(=O)C(CC)Sc1nnc(-c2ccc(F)cc2)c(-c2ccc(F)cc2)n1 (stereo not given) | inactive: -16.7%
6 | Cc1cccc(NC(=O)c2c(NC(=O)c3cccs3)sc3c2CCC(C)C3)c1 (stereo not given) | inactive: 1.92%
7 | CC(C)CN(CC(C)C)c1nc(-c2ccc(Cl)cc2)nc2ccccc12 | inactive: -1.64%
8 | O=C(NCCCN1CCN(c2ccc(F)cc2)CC1)C1COc2ccccc2C1 (stereo not given) | inactive: -6.64%
9 | CCc1ccc(NC(=O)c2ccc3c(=O)n4nc(Nc5ccccc5C)sc4nc3c2)cc1 | inactive: -24.5%
10 | COc1ccc(Cl)cc1NC(=O)Cn1c(=O)n(Cc2nc(C)no2)c(=O)c2ccccc21 | inactive: -5.99%
11 | CCOC(=O)c1c(C)oc2nc(C)nc(N(CC(C)C)CC(C)C)c12 | inactive: 2.82%
12 | COc1ccc(CCNC(=O)Cn2c(=O)cc(C(F)(F)F)c3c(C)nn(C)c32)cc1OC | inactive: -0.924%
13 | Clc1ccc(Nc2c(-c3cccs3)nc3ccc(Cl)cn23)cc1 | inactive: 6.91%
14 | COc1ccccc1NC(=O)C1=C(C)Nc2nc(SCc3ccccc3F)nn2C1c1cccnc1 (stereo not given) | inactive: 28.1%
15 | Cc1ccc(Cl)cc1NC(=O)c1sc2nc(-c3ccccc3)cn2c1C | inactive: 11.5%
16 | CCc1cccc(NC(=O)c2cc3c(=O)[nH]c4ccccc4c3n2C)c1 | inactive: 7.7%
17 | Cc1ccc(C)c(CSC2=NC(C)(C)Nc3ccccc32)c1 | inactive: 4.88%
18 | CCOC(=O)c1sc2nc(C)n(CC(=O)Nc3cccc(Cl)c3)c(=O)c2c1C | inactive: 11.7%
19 | COc1ccc(CN(C)S(=O)(=O)c2nnc(NC(=O)C(C)C)s2)cc1OC | inactive: -12.5%
20 | Cc1ccc2c(n1)sc1c(=O)n(-c3cccc(C(F)(F)F)c3)nnc12 | inactive: 5.04%
21 | Clc1ccc(OCc2nc(-c3ccc(-n4cccc4)cc3)no2)cc1 | inactive: 2%
22 | COc1ccc2c(c1)c1c(c(=O)n(Cc3ccccc3)c(=O)n1CC(=O)Nc1cc(C)cc(C)c1)n2C | inactive: 9.95%
23 | O=C(Nc1ccccc1OCc1cc(=O)n2ccccc2n1)c1cccc(Br)c1 | inactive: 5.83%
24 | Cc1cc(C)cc(NC(=O)CSc2oc(-c3ccco3)nc2S(=O)(=O)c2ccccc2)c1 | inactive: 1.22%

Row | Compound | activity change, negative = cytotoxicity
25 | Cc1cccc(N2CCN(C(=O)c3ccc4c(c3)c(C)c(C)n4C)CC2)c1C | inactive: -0.0335%
26 | CCOc1ccc(NC(=O)N2CCC(CN3CCCCCC3)CC2)cc1 | inactive: 0.953%
27 | Cc1ccc(CCNC(=O)CCCn2c(=O)c3ccccc3n(CC(=O)Nc3cc(Cl)ccc3C)c2=O)cc1 | inactive: 8.29%
28 | Cc1ccc(CN2CCSc3ccc(C(=O)Nc4cc(C)cc(C)c4)cc32)cc1 | inactive: -7.81%
29 | CN(C(=O)CSc1nnc(-c2ccc([N+](=O)[O-])cc2)o1)C1CCCCC1 | inactive: -5.69%
30 | COc1ccc(-c2nc3scc(CCNS(=O)(=O)c4cc(F)ccc4OC)n3n2)cc1OC | inactive: 1.69%
31 | O=C(Nc1ccc2oc(-c3ccccc3)nc2c1)c1ccc2ccccc2c1 | inactive: -18.1%
32 | CC(=O)N1c2ccc(S(=O)(=O)N3CCCCCC3)cc2CC1C(=O)NCc1ccccc1 (stereo not given) | inactive: -14.3%
33 | COCCn1c(C)cc(O)c(C(c2ccccc2)N2CCN(CCO)CC2)c1=O (stereo not given) | inactive: -8.24%
34 | COc1cc2c(cc1OC)C(COc1ccc3c(C)cc(=O)oc3c1)N(C(=O)c1cccc(OC)c1OC)CC2 (stereo not given) | inactive: -6.25%
35 | Cc1ccc2c(Sc3ccc(Cl)cc3)c(C(=O)NCCC(C)C)[nH]c2c1 | inactive: 9.19%
36 | Cc1c(C(=O)N(Cc2ccc(N(C)C)cc2)CC2CCCO2)oc2ccccc12 (stereo not given) | inactive: 0.0658%
37 | Cc1nc2sc(C)c(C)n2c(=O)c1S(=O)(=O)N1CCN(c2ccccc2F)CC1 | inactive: -9.62%
38 | Cc1cc(C)cc(OCC(=O)Nc2nonc2-c2ccc(Br)cc2)c1 | inactive: -1.96%
39 | COc1ccc2[nH]cc(CCNC(=O)Nc3ccccc3)c2c1 | inactive: -1.73%
40 | COc1ccc(CN(C(=O)c2ccccc2F)C2CCS(=O)(=O)C2)cc1 (stereo not given) | inactive: -9.31%
41 | Cc1ccc(NC(=O)CN2C(=O)c3cccnc3Sc3ccccc32)cc1C | inactive: 18.7%
42 | CCCSc1ncc(Cl)c(C(=O)Nc2ccc(S(=O)(=O)N3CCCC(C)C3)cc2)n1 (stereo not given) | inactive: -13%
43 | CCc1nnc(SCc2nc(-c3ccccc3Cl)oc2C)c2cc3sc(C)cc3n12 | inactive: 20.9%
44 | O=C(Nc1nc2c(F)cccc2s1)c1ccc(S(=O)(=O)N2CCOCC2)cc1 | inactive: -9.38%
45 | CCCC(=O)N1CCc2cc(OC)c(OC)cc2C1COc1ccccc1OC (stereo not given) | inactive: 3.4%
46 | Cc1ccn2c(NC(=O)c3cccc(Cl)c3)c(-c3ccccc3)nc2c1 | inactive: -1.61%
47 | Cc1cccc(C)c1NC(=O)Cn1c(=O)n(Cc2ccc(C(=O)NCc3ccco3)cc2)c(=O)c2sccc21 | inactive: -9.84%
48 | CCOC(=O)Cc1cc(C(=O)Nc2ccc(Br)cc2)sc1-c1ccc(C)cc1 | inactive: -9.14%

Row | Compound | activity change, negative = cytotoxicity
49 | CCOc1ccc(C(=O)c2cn(CC(=O)Nc3ccc(OC)cc3)c3cc4c(cc3c2=O)OCO4)cc1 | inactive: 26.3%
50 | O=C(NCC(c1ccc2c(c1)OCO2)N1CCN(c2ccccc2)CC1)C(=O)Nc1ccc(F)cc1 (stereo not given) | inactive: 4.33%
51 | CC1CCN(S(=O)(=O)c2ccc3c(c2)CCN3C(=O)Nc2cccc(Br)c2)CC1 | inactive: 13.8%
52 | Cc1ccc(-c2nc3n(n2)C(c2ccccc2Cl)C=C(c2ccc(Cl)cc2)N3)cc1 (stereo not given) | inactive: -8.5%
53 | CCOC(=O)c1ccc(CN(Cc2ccc(C)cc2)S(=O)(=O)c2ccc(F)c(C(=O)Nc3ccc(C)c(F)c3)c2)cc1 | inactive: -11.7%
54 | CCOCCc1nn2c(=O)cc(COC(=O)c3ccccc3NC(=O)c3ccccc3F)nc2s1 | inactive: 4.57%
55 | Cc1ccc(S(=O)(=O)NC2(C(F)(F)F)NC(=O)N(c3ccc(F)cc3)C2=O)cc1 (stereo not given) | inactive: 4.38%
56 | COC(=O)c1sccc1S(=O)(=O)N(CC(=O)NCc1ccc(C)cc1)c1ccccc1 | inactive: 15.2%
57 | N#Cc1c[nH]n2c(NC3CCCC3)c(-c3cccc(Br)c3)nc12 | inactive: -5.53%
58 | CCOC(=O)c1c(C)[nH]c(C)c1S(=O)(=O)N1CCCC(C(=O)Nc2ncccc2C)C1 (stereo not given) | inactive: 11.6%
59 | CC(C)CCn1c(=O)c2cccnc2n(CC(=O)Nc2ccccc2)c1=O | inactive: 6.62%
60 | CCS(=O)(=O)N1CC(=O)N(c2cccc(Cl)c2)C(C)(C(=O)NC2CCCCCC2)C1 (stereo not given) | inactive: -0.386%
61 | Cc1oc(-c2ccc(C(=O)NCCC(C)C)cc2)nc1CS(=O)(=O)c1ccccc1 | inactive: -29.2%
62 | COc1ccccc1CCNC(=O)C(=O)NCC(c1ccco1)S(=O)(=O)c1cccs1 (stereo not given) | inactive: -18.6%
63 | COc1ccc(C(=O)Nc2ccc(NC(=O)c3cccs3)cc2)cc1OC | inactive: -2.88%
64 | CN(C)c1ccc(CN(Cc2ccco2)C(=O)COc2ccc(F)cc2)cc1 | inactive: 4.94%
65 | CC(C)CNC(=O)N1CCN(S(=O)(=O)c2ccc3c(ccn3C)c2)CC1 | inactive: -0.35%
66 | COc1ccc(Cn2ccnc2SCC(=O)Nc2ccc3c(c2)OCO3)cc1 | inactive: 1.6%
67 | COc1ccc(-c2cc(C(F)(F)F)n3nc(C(=O)Nc4cc(C(F)(F)F)ccc4Cl)cc3n2)cc1OC | inactive: 9.75%
68 | Cc1ccc2oc3c(c(=O)c2c1)C(c1ccccc1F)N(c1ccccn1)C3=O (stereo not given) | inactive: -10.6%
69 | Cc1ccc(C(C(=O)NC2CCCCC2)N(C)Cc2ccccc2)cc1 (stereo not given) | inactive: -3.57%
70 | CCOC(=O)c1ccccc1NC(=O)Cn1nnc2sc3c(c2c1=O)CCCC3 | inactive: 1.88%
71 | Cc1ccc(NC(=O)Cn2c(=O)c(C(F)(F)F)nc3ccccc32)cc1C | inactive: -22.9%
72 | CCOC(=O)c1ccccc1Nc1nc2ccc(C)cc2n2nnnc12 | inactive: 2.33%

Row | Compound | activity change, negative = cytotoxicity
73 | Cc1cccc(C)c1NC(=O)c1nc(S(C)(=O)=O)ncc1N(Cc1ccc(C(C)(C)C)cc1)Cc1ccco1 | inactive: -1.82%
74 | Cn1cc(-c2cc3n(n2)CCC(=O)N3CCCC(=O)NCc2ccc(F)cc2)c2ccccc21 | inactive: -11.1%
75 | CCOc1ccc(NC(=O)c2oc3ccccc3c2NC(=O)C2CCCCC2)cc1 | inactive: 22.8%
76 | Cc1oc2c(c1C(=O)Nc1ccc(F)c(F)c1)C1=NCCN1C=N2 | inactive: -20.2%
77 | CCc1cccc(CC)c1NC(=O)CCS(=O)(=O)c1ccc(Br)s1 | inactive: -3.4%
78 | COc1cccc(-c2nnc(SCC(=O)N3CCCCC3)o2)c1 | inactive: -2.57%
79 | CCOC(=O)c1cccc(NC(=O)c2ccc3c(c2)nnn3CC)c1 | inactive: 1.56%
80 | COc1ccc(CNC(=O)C2CCCN(S(=O)(=O)N(C)c3ccc(F)cc3)C2)cc1OC (stereo not given) | inactive: -4.5%
81 | O=C(OCc1cc(=O)n2nc(-c3cccs3)sc2n1)c1cccc(Cl)c1 | inactive: -13%
82 | COc1cccc(CNS(=O)(=O)c2ccc3[nH]c4c(c3c2)CCCCC4)c1 | inactive: -1.42%
83 | Cc1ccc(C)c(N2CCN(C(=O)c3ccc(-c4nc(COc5ccccc5)c(C)o4)cc3)CC2)c1 | inactive: 1.26%
84 | CCOc1ccc(NC(=O)c2ccc3[nH]c(C)cc(=O)c3c2)cc1 | inactive: 5.16%
85 | COc1ccc2c(CNCCc3ccccc3C)c(C(=O)O)n(Cc3ccccc3C)c2c1 | inactive: 9.43%
86 | Cc1ccccc1C(=O)Nc1cccc(OCc2cc(=O)n3c4c(sc3n2)CCCC4)c1 | inactive: -3.9%
87 | Cc1ccc(C)c(CNS(=O)(=O)c2ccc3c(c2)C(C)(C)C(=O)N3C)c1 | inactive: 0.995%
88 | COc1ccc2c(c1)c1c(c(=O)n(-c3ccc(C)cc3)c(=O)n1CC(=O)c1ccc(Cl)cc1)n2C | inactive: 4.41%
89 | COc1ccc(NC(=O)Cn2cc(S(=O)(=O)N3CCC(C)CC3)c3ccccc3c2=O)cc1Cl | inactive: -2.28%
90 | CC1CCN(S(=O)(=O)c2ccc3c(c2)N(CC(=O)NCCN(C)C)C(=O)CO3)CC1 | inactive: 12.5%
91 | COc1ccc(CN(Cc2ccco2)C(=O)COc2ccc(Cl)cc2C)cc1 | inactive: -4.27%
92 | CCOC(=O)c1c(S(=O)(=O)N2CCCC(C(=O)NCc3ccc(F)cc3)C2)c(C)n(CC)c1C (stereo not given) | inactive: -0.38%
93 | CC(=O)N1CCc2c(sc3c2c(=O)n(-c2cccc(Cl)c2C)c(=O)n3Cc2ccccc2C)C1 | inactive: 4.73%
94 | Cc1ccc2c(c1)cc1c(=O)n(CC(=O)N(C)c3ccccc3)nc(C)n12 | inactive: 11.6%
95 | CCOCCCNC(=O)C1CCCN(c2ncnc3onc(C)c23)C1 (stereo not given) | inactive: -5.26%
